Assay: physchem
Settings: HPLC gradient method, acetonitrile/0.1% aqueous phosphoric acid
[1] = logP, single value printed for the substance
[2] = single value printed for the substance
[3] = logP, E isomer of the isomer mixture, value assigned by printed order of the isomer column
[4] = logP, Z isomer of the isomer mixture, value assigned by printed order of the isomer column

| SMILES | chromatographic logP [1] | also measured |
| --- | --- | --- |
| CO/N=C(\C(=O)NCCc1ccc(OC(C)C)c(OC)c1)c1ccc2c(c1)CCCC2 [Example 62] | 3.89 |  |
| CO/N=C(\C(=O)NCCc1ccc(OCC(C)C)c(OC)c1)c1ccc2c(c1)CCCC2 [Example 46] |  | logP [2]: 4.45 |
| CO/N=C(\C(=O)NCCc1ccc(OC(C)C)c(OC)c1)c1ccc2c(c1)CCCC2 [Example 61] |  | chromatographic logP [3]: 3.89; chromatographic logP [4]: 4.18 |
| COc1cc(CCN)ccc1OCC#N [II-a-1, 2-[4-(cyanomethoxy)-3-methoxyphenyl]-1-ethanaminium chloride] | 0.1 |  |
| CCc1ccc(/C(=N/OC)C(=O)NCCc2ccc(OC(C)C)c(OC)c2)cc1 [Example 60] | 3.54 |  |
| C=CCOc1ccc(CCNC(=O)/C(=N\OC)c2ccc(Br)cc2)cc1OC [Example 115] |  | chromatographic logP [3]: 3.33; chromatographic logP [4]: 3.6 |
| CO/N=C(\C(=O)NCCc1ccc(OCC(C)C)c(OC)c1)c1ccc2c(c1)CCCC2 [Example 45] | 4.74 |  |
| CCCCOc1ccc(CCNC(=O)/C(=N\OC)c2ccc3c(c2)CCCC3)cc1OC [Example 48] | 4.68 |  |
| CCCCOc1ccc(CCNC(=O)/C(=N\OC)c2ccc3c(c2)CCCC3)cc1OC [Example 49] |  | logP [2]: 4.40 |
| CON=C(C(=O)NCCc1ccc(OCC#N)c(OC)c1)c1ccc2c(c1)CCCC2 [Example 1, N-[4-(cyanomethoxy)-3-methoxyphenethyl]-2-(methoxyimino)-2-(5,6,7,8-tetrahydro-2-naphthyl)acetamide] |  | chromatographic logP (log P, Isomer A, Isomer A of the mixture of isomers): 3.16; chromatographic logP (log P, Isomer B, Isomer B of the mixture of isomers): 3.41 |
| COc1cc(CCNC(=O)OC(C)(C)C)ccc1OCC#N [II-a*−1, tert-butyl 4-(cyanomethoxy)-3-methoxyphenethylcarbamate] | 2.51 |  |
| COc1cc(CCNC(=O)OC(C)(C)C)ccc1O [IV*−1, tert-butyl 4-hydroxy-3-methoxyphenethylcarbamate] | 2.09 |  |
| COCCOc1ccc(CCNC(=O)/C(=N/OC)c2ccc3c(c2)CCCC3)cc1OC [Example 107] | 3.25 |  |
| CCOc1cc(CCNC(=O)/C(=N\OC)c2ccc3c(c2)CCCC3)ccc1OC [Example 100] | 3.49 |  |

From patent US6787670B1, “Glyoxyl acid amides, method for producing them and their use for controlling harmful organisms” (priority 1999, dated 2004)
